Hit rate of the full screen: of about 48,000 compounds, about 550 (1.1%) were called active. Another 4% or so got no clear call; they are omitted. Rule as the data show it: active = potency below about 15 µM; inconclusive = mostly about 16 µM to 33 µM; inactive = weaker than that. The list shows a part of the results.
Potency is read from the fitted curve at half-maximal effect.

The target in the experiment is Lysosomal acid glucosylceramidase (Homo sapiens) (UniProt P04062). Description: Glucocerebrosidase.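 Also: the screen sought inhibitors.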 The conditions noted are these: purified enzyme, resorufin glucoside fluorescence (screen aimed at inhibitors), 20 min. In short, it runs like this: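 Compounds titrated against 0.2 nM normal enzyme, 30 uM resorufin beta-D-glucopyranoside substrate, citrate/phosphate buffer with taurocholate and tween-20, pH 5.9. Reaction ran 20 min at room temperature; fluorescence (Ex 548/Em 600) gave AC50.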
UniProt P04062, sequence (P04062 whole entry, looked up): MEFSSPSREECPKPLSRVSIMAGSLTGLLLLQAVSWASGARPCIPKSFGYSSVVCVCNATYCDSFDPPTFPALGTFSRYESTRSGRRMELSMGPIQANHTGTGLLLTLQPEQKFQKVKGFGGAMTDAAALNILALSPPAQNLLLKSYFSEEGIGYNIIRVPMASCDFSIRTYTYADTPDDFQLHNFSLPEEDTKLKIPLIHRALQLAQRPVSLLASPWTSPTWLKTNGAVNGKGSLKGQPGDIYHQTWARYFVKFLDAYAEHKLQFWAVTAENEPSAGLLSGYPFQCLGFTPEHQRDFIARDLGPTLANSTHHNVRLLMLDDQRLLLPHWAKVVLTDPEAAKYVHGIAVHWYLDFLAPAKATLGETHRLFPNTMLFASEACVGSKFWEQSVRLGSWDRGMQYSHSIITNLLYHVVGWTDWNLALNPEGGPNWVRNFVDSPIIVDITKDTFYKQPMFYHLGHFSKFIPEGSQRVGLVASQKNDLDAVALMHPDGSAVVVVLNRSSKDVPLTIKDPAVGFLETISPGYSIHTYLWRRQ
Take `COc1ccc(CCNC(=O)CSc2nc(-c3ccco3)cc(C(F)(F)F)n2)cc1`: the Potency is inactive: > 76.9 µM.

`Cn1cnnc1SCC(=O)N1CCC(Cc2ccccc2)CC1`: the Potency entry was “inactive”.

For `Cc1cc(NC(=O)CSc2nnc(-c3ccc4c(c3)OCCO4)o2)no1`, the Potency was inactive: > 76.9 µM.

On to `O=C(CSc1nnc(-c2cccs2)o1)OCc1ccccc1`, for which the Potency is inactive: > 76.9 µM.

As to `CC1=C(C)CC(C(=O)N2CCN(Cc3ccccc3)CC2)C(C(=O)O)C1` (stereo unspecified), the Potency was inactive: > 76.9 µM.

Consider `CC1CC(c2ccccc2)n2nc(NC(=O)c3cccs3)nc2N1` (stereo unspecified), for which the Potency was inactive: > 76.9 µM.

Regarding `Cc1ccc(S(=O)(=O)NCCCNC(=O)c2ccccc2)cc1`, the Potency is inactive: > 76.9 µM.

With `Oc1ccc(Br)cc1/C=N/n1cnc2ccccc21`, the Potency is inactive: > 76.9 µM.

With `COc1cc(C)nc(SCC(N)=O)n1`, the Potency was inactive: > 76.9 µM.

Consider `COc1ccc(O)c(C2NC(CC(C)C)(C(=O)O)C3C(=O)N(Cc4ccccc4)C(=O)C23)c1` (stereo unspecified), for which the Potency is inactive: > 76.9 µM.

In the case of `CCCC(=O)Nc1nnc(CC(=O)N2CCCC2)s1`, the Potency is inactive: > 76.9 µM.

With `CCOC(=O)C1CCCN(C(=O)c2sc3nc(-c4ccc(F)cc4)cn3c2C)C1` (stereo unspecified), the Potency was inactive: > 76.9 µM.

For `CCOC(=O)N1CCC(NC(=O)c2cccn3c(=O)c4cc(Br)ccc4nc23)CC1`, the Potency is inactive: > 76.9 µM.

Regarding `Cc1cc(C)cc(N(C(C)C(=O)Nc2c(C)n(C)n(-c3ccccc3)c2=O)S(C)(=O)=O)c1` (stereo unspecified), the Potency is inactive: > 76.9 µM.

Turning to `CCCCN(C)Cc1c(C)[nH]c2c(Cl)cccc2c1=O`, the Potency was inactive: > 76.9 µM.

Consider `CN1CCN(C(=O)CCC(=O)c2ccc(F)cc2)CC1`, for which the Potency was inactive: > 76.9 µM.

For the compound `Cc1cccc(N2CCN(C(=O)C34CC5CC(CC(C5)C3)C4)CC2)c1C`, the Potency is inactive: > 76.9 µM.

Consider `CCN(CC(=O)NCc1ccccn1)S(=O)(=O)c1ccc(Cl)cc1`, for which the Potency was inactive: > 76.9 µM.

Consider `COC(=O)c1c(NC(=O)CCc2ccc(C)o2)sc(C)c1C`, for which the Potency result is “inactive”.

Regarding `Cc1cccc(C)c1NC(=O)COC(=O)c1nonc1N`, the Potency was inactive: > 76.9 µM.

With `c1cncc(Nc2nc(-c3cccs3)cs2)c1`, the Potency was inactive: > 76.9 µM.

Consider `O=C(CCCc1c[nH]c2ccccc12)N1CCCCCC1`, for which the Potency was inactive: > 76.9 µM.

`NC(=O)c1ccccc1NC(=O)CCCN1C(=O)CCC1=O`: the Potency was inactive: > 76.9 µM.

`COc1ccccc1NC(=O)CN1C(=O)CCS(=O)(=O)c2ccccc21`: the Potency was inactive: > 76.9 µM.

Regarding `CCCS(=O)(=O)N1CCCC(C(=O)N2CCN(c3ccccn3)CC2)C1` (stereo unspecified), the Potency was inactive: > 76.9 µM.

Consider `O=C1c2ccccc2C(O)(Cc2ccccc2)N1C1CCCCC1` (stereo unspecified), for which the Potency was inactive: > 76.9 µM.

Values taken from PubChem BioAssay AID360 (National Center for Advancing Translational Sciences (NCATS), 2006).
